Source: ChEMBL document CHEMBL1201862, “PubChem BioAssay data set” (2004)
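Five compound concentrations were applied to cells in 96-well plates for 48 hours; endpoints were derived by simple linear interpolation of the resulting dose-response curve. The concentration for 50% growth inhibition is given as GI50.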 Calls of active or inactive are those of the source. No stated cut-off is given here; in the data, active = GI50 up to about 1.1 µM and inactive = higher.

The compounds below were run on NCI-H322M (assay: NCI-60 cell line screen, 48 h).
For `COc1cc(/C=C/c2ccc(O)c(OC)c2)cc(OC)c1`, the GI50 was inactive: 23.9 µM. `Cc1ccc2c(c1)-c1c3c(nn1-c1ccccc1)-c1ccccc1SC3O2` (centres undefined) was tested, and the GI50 was inactive: > 100 µM. For `N#C/C(=C\N1CCNC1=S)C(=O)c1ccc2ccccc2c1`, the GI50 was inactive: > 100 µM. For `CN(Cc1ccccc1)C(=O)c1ccccc1C(=O)O`, the GI50 was inactive: > 100 µM. In the case of `NC(=O)/C(=C\c1ccncc1)c1cccc2ccccc12`, the GI50 is reported as inactive: > 100 µM. With `Cc1nc(O)c2c3c(sc2n1)CCCC3` the GI50 was inactive: > 100 µM. In the case of `C=C(Cl)/C(=C\Cl)CCC(Cl)C(C)C` (centres undefined), the GI50 is reported as inactive: > 100 µM. `C/C=C\C(CC(=O)O)CN1CCC2=C(C1)C(S(=O)(=O)C(F)(F)F)c1ccccc12` (centres undefined) was tested, and the GI50 was inactive: > 100 µM. In the case of `CCC(C)NC1=NCC(C)S1` (centres undefined), the GI50 is reported as inactive: > 100 µM. With `CCOC(=O)C(=[N+]=[N-])C(=O)Nc1nn2nnnc2c2ccccc12` the GI50 was inactive: > 100 µM. With `O=C(NNCc1ccco1)c1cc2ccccc2[nH]1` the GI50 was inactive: > 94 µM. In the case of `C[C@]12CCc3nonc3C1CC[C@@H]1C2CC[C@]2(C)C(=O)/C(=N\O)CC12` (some centres undefined), the GI50 is reported as inactive: > 100 µM. With `N#Cc1c(-c2ccc(Cl)cc2)cc(-c2ccc(Nc3ccnc4cc(Cl)ccc34)cc2)[nH]c1=O` the GI50 was inactive: > 100 µM. With `Clc1cc(Cl)c2ns[s+]c2c1Cl` the GI50 was inactive: > 100 µM. In the case of `CCCCCCC(O)C(=O)OC1C2C(CC1(C)C)C(O)C13OC1C(O)C1(CO1)[C@@]23C` (some centres undefined), the GI50 is reported as inactive: > 100 µM. `Clc1ccc(/N=C/C=C/Nc2ccc(Cl)cn2)nc1` was tested, and the GI50 was inactive: 16.3 µM. With `C=C1CCCC(C)(C)[C@@H]1CC/C(C)=C/Cn1c2cccc(=O)c-2nc2ccccc21` the GI50 was inactive: 2.24 µM. With `CCNC(=O)O/N=C1/C=C2CC[C@@H]3C(CC[C@@]4(C)C3CC[C@@H]4OC(=O)NCC)[C@@]2(C)CC1` (some centres undefined) the GI50 was inactive: 4.55 µM. `CN(Cc1ccccc1)/C(=N\C#N)N(Cc1ccccc1)Cc1ccccc1` was tested, and the GI50 was inactive: 38.5 µM. In the case of `O=C(c1ccccc1)c1ccc2[nH]c(-c3c(Cl)c(Cl)c(Cl)c(Cl)c3-c3nnc(-c4ccccc4)o3)nc2c1`, the GI50 is reported as inactive: 62.1 µM. In the case of `CNC1C(=O)C(C)C(O)(C(CC(C)C(O)/C=C/C=C/CNC(=O)C(C)(C)C(O)\C(C)=C/C=C\C=C\Cc2cnc(C)o2)OC)C12C(=O)OC2C.CNC1C(=O)C(C)C(O)(C(CC(C)C(O)/C=C/C=C/CNC(=O)C(C)(C)C(O)\C(C)=C/C=C\C=C\Cc2cnc(C)o2)OC)C12C(=O)OC2COC` (centres undefined), the GI50 is reported as inactive: 29.3 µM. `O=C(c1ccccc1)C(c1ccccc1)C1(O)C(=O)Nc2ccc(Br)cc21` (centres undefined) was tested, and the GI50 was inactive: > 100 µM. With `COC(=O)C1=C(C(=O)OC)SC2(S1)C1=C(CCC1)SC(C(=O)OC)=C2C(=O)OC` the GI50 was inactive: 17.2 µM. In the case of `O=C(NCCCCN(CCCNC(=O)C(F)(F)F)Cc1ccccc1)C(F)(F)F`, the GI50 is reported as inactive: > 100 µM. With `Cn1c(CCC#N)nc2ccc(Br)cc2c1=O` the GI50 was inactive: 88.3 µM. In the case of `O=C1NC2C(CCO)CC=C[C@H]2c2cc3c(cc21)OCO3` (some centres undefined), the GI50 is reported as inactive: > 100 µM. With `CC1=C(C(=O)OCCc2ccc([N+](=O)[O-])cc2)C(c2ccccc2C(F)(F)F)C(C(=O)OC(C)C)=C(C)N1` (centres undefined) the GI50 was inactive: 7.26 µM. For `COc1ccc(C2COc3cc(OC(C)=O)c(OC(C)=O)cc3C2)cc1` (centres undefined), the GI50 was inactive: 18.2 µM. `CN(C)CCS/C(=N\c1ccccc1)n1cccc1` was tested, and the GI50 was inactive: > 100 µM. With `c1ccc2nn(C3CCCO3)nc2c1` (centres undefined) the GI50 was inactive: > 100 µM. With `C[N+](C)(C)CC(=O)N/N=C(/Cc1cc(=O)oc2cc(O)ccc12)C(=O)Nc1ccc(Cl)cc1` the GI50 was inactive: > 100 µM. With `CC(=O)C(=[N+]=[N-])C(=O)NCC#N` the GI50 was inactive: > 10 µM. In the case of `CN(C)c1ccc2c3c(c(=O)oc2c1)CCC3`, the GI50 is reported as inactive: 87.9 µM. With `COC(=O)C1=C(C(=O)OC)SC(=C2S[C@@H]3[C@@H]4C[C@H]([C@@H]3S2)[C@H]2C(=O)OC(=O)[C@@H]42)S1` the GI50 was inactive: > 100 µM. With `Cc1cccc(Cn2c3c(c4cc(O)ccc42)C(=O)c2ccccc2C3=O)c1` the GI50 was inactive: > 59.2 µM. For `Cc1ccccc1NC(=O)CC(=O)NNC(Sc1ccccc1)c1cc(/N=N/c2ccc(Br)cc2)ccc1O` (centres undefined), the GI50 was inactive: 1.33 µM. For `O=C(CC1(O)C(=O)Nc2c(Cl)cc(Cl)cc21)c1cccc2ccccc12` (centres undefined), the GI50 was inactive: 19.3 µM. In the case of `CN1CCN(C(=S)N(C(=O)c2ccc(Cl)cc2)c2ccccc2)CC1`, the GI50 is reported as inactive: > 100 µM. For `COC(=O)[C@@H]1Cc2c([nH]c3ccccc23)[C@H](c2ccccc2)N1`, the GI50 was inactive: 43.6 µM. For `CC(=O)OCC1OC(n2c(-c3cccs3)c3c(c(C#N)c2=S)-c2ccccc2CC3)C(OC(C)=O)C(OC(C)=O)C1OC(C)=O` (centres undefined), the GI50 was inactive: 25.2 µM. For `O=C1c2cccc3cc([N+](=O)[O-])cc(c23)C(=O)N1c1ccc(OCCN2CCCC2)cc1`, the GI50 was inactive: > 100 µM. `C=CCOC(OCC=C)/C(Br)=C/C` was tested, and the GI50 was inactive: > 100 µM. In the case of `ClCCCCCc1c2nc(c(CCCCCCl)c3ccc([nH]3)c(CCCCCCl)c3nc(c(CCCCCCl)c4ccc1[nH]4)C=C3)C=C2`, the GI50 is reported as inactive: > 100 µM. For `C/C(=N\NS(=O)(=O)c1ccc([N+](=O)[O-])cc1)c1ccc[n+]([O-])n1`, the GI50 was inactive: 4.02 µM. In the case of `CCOC(=O)c1cc2c3ccn(Cc4ccccc4)c3c3c(C)noc3c2[nH]1`, the GI50 is reported as inactive: > 100 µM. With `Cc1cc(C)c2ccc(N3CCNCC3)nc2n1` the GI50 was inactive: 92 µM. For `CCOC(=O)c1cc(-c2ccc(-c3cc(C(=O)OCC)c(C#N)c(N)c3C#N)cc2)c(C#N)c(N)c1C#N`, the GI50 was inactive: > 100 µM. In the case of `COc1ccc([C@H]2[C@H](C)C3=Nc4ccccc4CN32)cc1`, the GI50 is reported as inactive: 57.1 µM. `O=C1C2=C(c3ccccc31)C(c1cccc(Cl)c1)NC(S)=N2` (centres undefined) was tested, and the GI50 was inactive: > 100 µM. For `CCOC(=O)/C=C(/C(=O)OCC)n1cc(Cl)c(=O)n(CC(=O)OCC)c1=O`, the GI50 was inactive: > 25 µM. With `CC(C)CCC[C@@H](C)C1CCC2[C@@H]3CC=C4C[C@@H](C(=O)NCC[N+](C)(C)CCCS(=O)(=O)[O-])CC[C@]4(C)C3CC[C@@]21C` (some centres undefined) the GI50 was inactive: 15.8 µM. In the case of `O=C1/C(=C/c2cccc3ccccc23)Cc2ccccc21`, the GI50 is reported as inactive: 37 µM. `O=C1CCCC2=C1CC1=C(CCCC1=O)N2c1ccc(-c2ccccc2)cc1` was tested, and the GI50 was inactive: > 100 µM. In the case of `NS(=O)(=O)c1ccc(NC(=O)COC(=O)c2cccc3c(=O)c4ccccc4[nH]c23)cc1`, the GI50 is reported as inactive: 24.2 µM. In the case of `CCOC(=O)Cc1csc(Nc2ccccc2[N+](=O)[O-])n1`, the GI50 is reported as inactive: > 100 µM. For `O=c1/c(=C/c2ccccn2)sc2nc3cc4c(cc3n12)OCCO4`, the GI50 was inactive: > 100 µM. For `CC(C)(O)[C@@H]1CC[C@@]2(C)CCC[C@H](O)[C@H]2C1`, the GI50 was inactive: > 100 µM. For `Cn1c(=O)nc2n(CCO)c(-c3ccccc3)c(-c3ccccc3)nc-2c1=O`, the GI50 was inactive: > 100 µM. In the case of `c1ccc2c(c1)SCCC2NC1=NCCO1` (centres undefined), the GI50 is reported as inactive: > 100 µM. `CC(C)CC1NC(=O)CCC(NC(=O)C(Cc2ccc(O)cc2)NC(=O)OCc2ccccc2)C(=O)NC(Cc2ccccc2)C(=O)NC(Cc2ccccc2)NC1=O` (centres undefined) was tested, and the GI50 was inactive: > 100 µM. With `CC(C)(C)OC(=O)[C@H]1CCC(=S)N1Cc1ccccc1` the GI50 was inactive: > 100 µM. In the case of `CN1C(=O)N(C)C2(O)c3ccccc3C(=O)C12O` (centres undefined), the GI50 is reported as inactive: > 100 µM. With `CCOC(=O)[C@@H]1ON2O[C@H](OC3CCCC3(c3ccccc3)c3ccccc3)C[C@H]3OC(=O)[C@@H]1C32` (some centres undefined) the GI50 was inactive: 77.4 µM. `CCOC(=O)/C=C1/Nc2cc(F)c(F)cc2NC1=O` was tested, and the GI50 was inactive: > 100 µM. For `OCCc1ccsc1-c1sc(-c2cc(CCO)c(-c3sccc3CCO)s2)cc1CCO`, the GI50 was inactive: 10.2 µM. With `O=C1/C(=C2\Sc3c(ccc(Cl)c3Cl)C2=O)Sc2c1ccc(Cl)c2Cl` the GI50 was inactive: > 100 µM. With `CC(=O)NC(CCCNCc1ccccc1)C(=O)NCc1ccccc1` (centres undefined) the GI50 was inactive: > 100 µM. `Oc1cc(F)cc2cccnc12` was tested, and the GI50 was inactive: 3.91 µM. For `Cc1nc2sccn2c1C(=O)OCCOCCOCCOCCOC(=O)c1c(C)nc2sccn12`, the GI50 was inactive: 72.8 µM. For `O=c1c(-c2ccccc2)c(SCCO)n(-c2ccccc2)c(=S)n1-c1ccccc1`, the GI50 was inactive: > 100 µM. In the case of `CCOC(=O)C1(C/C=C(/C)Cl)CCCC1=O` (centres undefined), the GI50 is reported as inactive: > 100 µM. `Cl.O=C(O)c1cccnc1` was tested, and the GI50 was inactive: > 100 µM. `CC(=O)N1CC2Nc3ccccc3C2CC1CO` (centres undefined) was tested, and the GI50 was inactive: > 100 µM. `CCOC(CNc1nn2c(C)nnc2s1)OCC` was tested, and the GI50 was inactive: > 100 µM. In the case of `NCCCCNc1ccc2c(=O)[nH][nH]c(=O)c2c1`, the GI50 is reported as inactive: > 100 µM. With `O=S(=O)(Nc1nc2ccccc2nc1N1CCCCCC1)c1ccccc1` the GI50 was inactive: > 100 µM. `C[N+](C)([O-])CCOc1cc2c(c3ccccc13)-c1ccccc1C2=O` was tested, and the GI50 was inactive: 19.1 µM. In the case of `O=c1oc2ccccc2c(-c2ccc(O)cc2)c1Oc1ccc(Cl)cc1`, the GI50 is reported as inactive: 28.6 µM. For `C[N+](C)(C)CCC(=O)N1C/C(=C\c2ccccc2)C(=O)/C(=C/c2ccccc2)C1`, the GI50 was inactive: 14.9 µM. For `Cc1nnc2c3c(-c4ccccc4)c(-c4ccccc4)oc3nc(N(C)C)n12`, the GI50 was inactive: > 100 µM. In the case of `CCOC(=O)C1(C(=O)OCC)OC(C)=NC1(C(=O)OC)C(=O)OC`, the GI50 is reported as inactive: > 89.9 µM. With `C[C@]12CCC3C4=C(CCC3C1CCC2=O)C(=O)[C@H]1O[C@H]1C4=O` (some centres undefined) the GI50 was inactive: 16.6 µM. For `CN(C)c1ccc(C(=C2C=CC(=[N+](C)C)C=C2)c2c(O)c(S(=O)(=O)[O-])cc3cc(S(=O)(=O)O)ccc23)cc1`, the GI50 was inactive: > 100 µM. With `Cn1cc(NC(=O)Nc2cc(C(=O)Nc3cc(C(=O)Nc4ccc5cc(S(=O)(=O)O)cc(S(=O)(=O)O)c5c4)n(C)c3)n(C)c2)cc1C(=O)Nc1cc(C(=O)Nc2ccc3cc(S(=O)(=O)O)cc(S(=O)(=O)O)c3c2)n(C)c1` the GI50 was inactive: > 100 µM. For `COC(=O)[C@@H](COC(=O)/C=C/c1ccc(OC(C)=O)c(OC(C)=O)c1)NC(=O)/C=C/c1ccc(OC(C)=O)c(OC(C)=O)c1`, the GI50 was inactive: 24.3 µM. For `Cc1c(O)c(O)cc[n+]1C1OC(CO)C(O)C1O` (centres undefined), the GI50 was inactive: > 100 µM. In the case of `O=C(/C=C/c1ccc(O)cc1)c1cc(-c2cc(CCC(=O)c3ccc(O)cc3O)ccc2O)c(O)cc1O`, the GI50 is reported as inactive: 15.8 µM. `C=C(C)C1Cc2c(cc(OC)c3c(=O)c4ccccc4n(C)c23)O1` (centres undefined) was tested, and the GI50 was inactive: > 100 µM. In the case of `CCN(CC)C(=S)SNc1ccc(S(N)(=O)=O)cc1`, the GI50 is reported as inactive: > 91.2 µM.
